The results in this text go back to PubChem BioAssay AID1745853 (National Center for Advancing Translational Sciences (NCATS), 2022).

Each structure is given as a SMILES string. The list shows a part of the results. The main result of the screen is listed elsewhere. These columns were measured beside it and carry no call.

What all share (experiment): Primary Screen for Target Class Profiling of Small Molecule Inhibitors of Methyltransferases
Test [1] concerns the target Glycine N-methyltransferase (Homo sapiens) (UniProt Q14749). As to conditions: purified enzyme, MTase-Glo SAH luminescence; measured here: GNMT inhibition; at 40 µM; stronger effect = lower value. The gist of the method:
(§1)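 Each enzyme was assayed with SAM and its substrate. SAH formation detected by MTase-Glo luminescence; single-point 40 uM screen[…].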

Test [2] concerns the target Guanidinoacetate N-methyltransferase (Homo sapiens) (UniProt Q14353). As to conditions: purified enzyme, MTase-Glo SAH luminescence; measured here: GAMT inhibition; at 40 µM; stronger effect = lower value. In short, it runs like this:
as §1

Test [3] addresses Histamine N-methyltransferase (Homo sapiens) (UniProt P50135). As to conditions: purified enzyme, MTase-Glo SAH luminescence; measured here: HNMT inhibition; at 40 µM; stronger effect = lower value. The gist of the method: as §1
Test [4] has as its target Nicotinamide N-methyltransferase (Homo sapiens) (UniProt P40261). As to conditions: purified enzyme, MTase-Glo SAH luminescence; measured here: NNMT inhibition; at 40 µM; stronger effect = lower value. In short, it runs like this: as §1
Test [5] concerns the target Phenylethanolamine N-methyltransferase (Homo sapiens) (UniProt P11086). As to conditions: purified enzyme, MTase-Glo SAH luminescence; measured here: PNMT inhibition; at 40 µM; stronger effect = lower value. The gist of the method:
as §1
% is set by controls: 0 for no effect and ±100 for the full control effect.

Turning to `CC1=C2C3OC(=O)C(C)C3(O)CCC2(C)CCC1` (stereo not given), the activity change, negative = inhibition was -0.926% in test [1]; 3.02% in test [2]; 4.49% in test [3]; -8.38% in test [4]; -1.8% in test [5].
As for `COC[C@@H]1CN(C(=O)CCc2c(C)nn(C)c2C)C[C@H]1c1ccccn1`, the activity change, negative = inhibition in test [1] is -4.12%; in test [2] it was -2.87%; in test [3], -2.15%; in test [4], -2.28%; in test [5], -5.58%.
For `COC(=O)N1CCN(Cc2cccc(NC(=O)Nc3ccc(C)nc3)c2F)CC1`, in that order: -21.4%, -7.42%, -2.29%, -19.2% and -5.62%.
For `NC(=O)C1=CN(C2OC(COP(=O)(O)OP(=O)(O)OC[C@H]3O[C@@H](n4cnc5c(N)ncnc54)[C@H](OP(=O)(O)O)[C@@H]3O)C(O)C2O)C=CC1` (stereo not given in full), in that order: 21.9%, 51%, 19.1%, 126% and 29.6%.
For `O=C1CCC(c2ccccc2)(C2CCN(Cc3ccc(I)cc3)CC2)C(=O)N1` (stereo not given), in that order: -3.55%, -8.15%, -7.46%, -26.6% and -6.11%.
`COc1ccc(-c2cc3n(n2)CC(C)(C(=O)NC2CCCCC2)N(CC2CCCO2)C3=O)cc1` (stereo not given): the activity change, negative = inhibition in test [1] was -0.277%; in test [2] it was 3.69%; in test [3], -0.658%; in test [4] it was -5.9%; in test [5] it was -6.78%.
For `O=C(O)CSc1cc(NS(=O)(=O)c2ccc(Br)cc2)c2ccccc2c1O`, in that order: -95.6%, -50.7%, -79.3%, -37.5% and -83.5%.
As for `Cc1ccc(NC(=O)Cn2nc3n(C(C)C)c(=O)c4ccc(C(=O)NCC(C)C)cc4n3c2=O)cc1`, the activity change, negative = inhibition in test [1] was -0.427%; in test [2], 1.11%; in test [3], 1.14%; in test [4], 1.72%; in test [5], 6.06%.
As to `CC(=O)N[C@H]1[C@H](O[C@H]2CC[C@]3(C)C4CC=C5[C@@H]6CC(C)(C)CC[C@]6(C(=O)O)[C@H](O)C[C@@]5(C)[C@]4(C)CC[C@H]3C2(C)C)O[C@H](CO)[C@@H](O)[C@@H]1O` (stereo not given in full), the activity change, negative = inhibition in test [1] is -3.75%; in test [2] it was -26.1%; in test [3], 1.2%; in test [4] it was -27%; in test [5] it was -8.66%.
For `CN(C)CCCN1c2ccccc2CCc2ccc(Cl)cc21`, in that order: -5.07%, 5%, -33.8%, -18.2% and 6.05%.
As for `COc1ccccc1NS(=O)(=O)c1cc2c(cc1Cl)n(C)c(=O)n2C`, the activity change, negative = inhibition in test [1] amounted to 15.1%; in test [2] it was 0.708%; in test [3], 9.5%; in test [4], 7.4%; in test [5], 7.11%.
For `Cc1ccc(NC(=O)CN(C)S(=O)(=O)c2ccc3[nH]c4c(c3c2)CCCC4)cc1`, in that order: 4.39%, 0%, 2.08%, -2.42% and 3.55%.
For `Cc1cc(C(=O)N2CCC(F)(c3nc(-c4ccncc4)no3)CC2)n[nH]1`, in that order: -2.21%, 0.173%, -0.686%, -7.14% and 10.9%.
For `COc1cc(Br)c(S(=O)(=O)Nc2ccc(Cl)c(O[C@@H]3CCN(C)C3)c2)cc1OC`, in that order: 1.94%, -5.2%, -28.2%, -20.8% and -9.99%.
Turning to `CC(C)CCNC(=O)CCc1nnc2n(Cc3ccccc3)c(=O)c3ccccc3n12`, the activity change, negative = inhibition in test [1] is -5.02%; in test [2] it was 3.08%; in test [3] it was -4.1%; in test [4] it was 4.94%; in test [5] it was -5.67%.
In the case of `CC(=O)O[C@@H]1CC[C@@]2(C)C(CC[C@]3(C)C2[C@H](O)C=C2[C@H]4[C@@H](C)[C@H](C)CC[C@]4(C)CC[C@]23C)[C@@]1(C)C(=O)O` (stereo not given in full), the activity change, negative = inhibition in test [1] is 2.66%; in test [2], 8.22%; in test [3], 11%; in test [4], -16.7%; in test [5], 3.92%.
For `COc1ccc(OC)c(S(=O)(=O)N2CCC3(CC2)CN(c2ccccc2)C3=O)c1`, in that order: -0.942%, 2.16%, 13.7%, 3.45% and 9.68%.
For `COc1ccc(CN2C(=O)c3ccc(-c4ccccc4)n3CC2(C)C(=O)NC2CCCCCC2)cc1` (stereo not given), in that order: 6.6%, 3.15%, 1.87%, -0.081% and 0.229%.
For `Cc1cc(C)n(CC(=O)N2CCCCCCNC(=O)[C@@H]3CCCC[C@@H]32)n1`, in that order: -0.01%, 3.14%, -0.413%, -1.09% and 2.76%.
Consider `CC1CCC(NC(=O)C2(C)Cn3c(ccc3-c3ccco3)C(=O)N2C2CCCC2)CC1` (stereo not given), for which the activity change, negative = inhibition in test [1] was -1.3%; in test [2], 4.42%; in test [3] it was 0.315%; in test [4], -3.31%; in test [5] it was -1.75%.
For `O=C(NC1CC1)c1ccc2c(=O)nc3c(-c4ccc(F)cc4)n[nH]n3c2c1`, in that order: -3.13%, -1.86%, -8.31%, -4.46% and -7.58%.
For `CCC(=O)N[C@@H]1Cc2ccccc2[C@H](c2ccccc2)C1`, in that order: 5.2%, 3.48%, 12.7%, -8.45% and 4.12%.
For `CC(c1ccccc1)N1C(=O)c2ccccc2CC1(C)C(=O)NC1CCCCCC1` (stereo not given), in that order: -7.05%, 1.52%, -1.92%, -7.11% and -6.93%.
As for `CC1(C(=O)NC2CCCC2)Cn2c(cc3ccccc32)C(=O)N1Cc1ccc2c(c1)OCO2` (stereo not given), the activity change, negative = inhibition is 0.91% in test [1]; 0% in test [2]; 0.475% in test [3]; -4.03% in test [4]; 1.66% in test [5].
Turning to `CNC(=O)[C@@H]1C[C@H](Oc2ccccc2)CN1S(=O)(=O)c1cccs1`, the activity change, negative = inhibition was -4.35% in test [1]; -0.321% in test [2]; 0.688% in test [3]; -0.805% in test [4]; -9.97% in test [5].
For `CCC1c2ccc(C)n2CCN1C(=O)Nc1cc(C)ccc1C` (stereo not given), in that order: -8.57%, 0.091%, -10.2%, -11.4% and -11.8%.
Take `Cc1c(Cl)cccc1N1C(=O)c2cc3occc3n2CC1(C)C(=O)NC1CCCC(C)C1C` (stereo not given): the activity change, negative = inhibition in test [1] was -8.56%; in test [2], -8.56%; in test [3], 4.66%; in test [4] it was -15.2%; in test [5], -6.67%.
Consider `Cc1cccc(NC(=O)N2CCn3c(C)ccc3C2C(C)C)c1C` (stereo not given), for which the activity change, negative = inhibition in test [1] was 2.83%; in test [2] it was 0%; in test [3], -4.95%; in test [4], -3.68%; in test [5], 2.73%.
For `CC(C)c1noc(-c2cn(C3CCN(C(=O)Cc4ccc(F)cc4)C3)nn2)n1` (stereo not given), in that order: -0.768%, 2.78%, 1.93%, -0.44% and 0.973%.
